# Some of the results follow. The full chains were built here from the parent and the listed change. Values near 0.05 are background.
# B1: TEV protease; numbered along this chain (parent)
# chain: MGESLFKGPRDYNPISSSICHLTNESDGHTTSLYGIGFGPFIITNKHLFRRNNGTLVVQSLHGVFKVKDTTTLQQHLVDGRDMIIIRMPKDFPPFPQKLKFREPQREERICLVTTNFQTKSMSSMVSDTSCTFPSGDGIFWKHWIQTKDGQCGSPLVSTRDGFIVGIHSASNFTNTNNYFTSVPKNFMELLTNQEAQQWVSGWRLNADSVLWGGHKVFMVKPEEPFQPVKEATQL
# Variants of: B1
# Experiment: raw area under fraction-flipped curve 0-4 h after induction (AUC4h, not background-subtracted), DNA-recorder readout of cleavage of the substrate (dimensionless); higher = more cleavage of the substrate by the protease variant
# Details: temperature: 34 °C; time window: 0-4 h after rhamnose induction
# Protocol: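 In vivo DNA recorder in E. coli TOP10(DE3) ΔrhaA at 34 °C. Each TEVp single-site mutant (parent TEVp 0) is paired with a single-site variant of the 7-mer TEVs (canonical ENLYFQ|S). The substrate sits between flexible linkers in a Bxb1-sfGFP-TEVs-SsrA fusion, so cleavage stabilises Bxb1 and speeds flipping of a recombination array, read by NGS. The value is the raw area under the fraction-flipped curve over 0-4 h after rhamnose induction (AUC4h), with ≥20 reads per time point. It is not background-subtracted; inactive controls average about 0.047.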
# 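Further: Bxb1 expression induced with 0.2% (w/v) L-rhamnose at OD600 near 0.5, cultures sampled hourly, flipped fraction per protease–substrate barcode pair counted by paired-end Illumina sequencing.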
Variant,area with substrate ENAYFQS,area with substrate ENCYFQS,area with substrate ENDYFQS,area with substrate ENEYFQS,area with substrate ENFYFQS,area with substrate ENGYFQS,area with substrate ENHYFQS,area with substrate ENIYFQS,area with substrate ENKYFQS,area with substrate ENNYFQS,area with substrate ENPYFQS,area with substrate ENQYFQS,area with substrate ENRYFQS,area with substrate ENSYFQS,area with substrate ENTYFQS,area with substrate ENVYFQS,area with substrate ENWYFQS,area with substrate ENYYFQS,area with substrate ENMYFQS
MGESLFKGPRDYNPISSSICHLTNESDGHTTSLYGIGFGPFIITNKHLFRRNNGTLVVQSLHGVFKVKDTTTLDQHLVDGRDMIIIRMPKDFPPFPQKLKFREPQREERICLVTTNFQTKSMSSMVSDTSCTFPSGDGIFWKHWIQTKDGQCGSPLVSTRDGFIVGIHSASNFTNTNNYFTSVPKNFMELLTNQEAQQWVSGWRLNADSVLWGGHKVFMVKPEEPFQPVKEATQL [Q74D],0.0674,0.0768,0.028,0.0719,0.0655,0.0648,0.0659,0.0956,0.0605,0.0484,0.0627,0.0644,0.0548,0.067,0.0583,0.0632,0.0629,0.0441,
MGESLFKGPRDYNPISSSICHLTNESDGHTTSLYGIGFGPFIITNKHLFRRNNGTLVVQSLHGVFKVKDTTTLHQHLVDGRDMIIIRMPKDFPPFPQKLKFREPQREERICLVTTNFQTKSMSSMVSDTSCTFPSGDGIFWKHWIQTKDGQCGSPLVSTRDGFIVGIHSASNFTNTNNYFTSVPKNFMELLTNQEAQQWVSGWRLNADSVLWGGHKVFMVKPEEPFQPVKEATQL [Q74H],0.0192,,0.0564,0.0609,,0.0575,,,,,0.0886,0.04,,0.0836,,,,,
MGESLFKGPRDYNPISSSICHLTNESDGHTTSLYGIGFGPFIITNKHLFRRNNGTLVVQSLHGVFKVKDTTTLQQELVDGRDMIIIRMPKDFPPFPQKLKFREPQREERICLVTTNFQTKSMSSMVSDTSCTFPSGDGIFWKHWIQTKDGQCGSPLVSTRDGFIVGIHSASNFTNTNNYFTSVPKNFMELLTNQEAQQWVSGWRLNADSVLWGGHKVFMVKPEEPFQPVKEATQL [H76E],0.0605,,0.0535,,,0.059,0.0713,,,0.057,0.0667,0.0569,,0.0562,,0.0594,,0.0617,0.0644
MGESLFKGPRDYNPISSSICHLTNESDGHTTSLYGIGFGPFIITNKHLFRRNNGTLVVQSLHGVFKVKDTTTLQQHTVDGRDMIIIRMPKDFPPFPQKLKFREPQREERICLVTTNFQTKSMSSMVSDTSCTFPSGDGIFWKHWIQTKDGQCGSPLVSTRDGFIVGIHSASNFTNTNNYFTSVPKNFMELLTNQEAQQWVSGWRLNADSVLWGGHKVFMVKPEEPFQPVKEATQL [L77T],0.0602,0.053,,0.0491,0.0571,,0.0715,,0.0316,,,0.0489,0.0629,0.0997,0.0634,0.075,0.0619,,
MGESLFKGPRDYNPISSSICHLTNESDGHTTSLYGIGFGPFIITNKHLFRRNNGTLVVQSLHGVFKVKDTTTLQQHLADGRDMIIIRMPKDFPPFPQKLKFREPQREERICLVTTNFQTKSMSSMVSDTSCTFPSGDGIFWKHWIQTKDGQCGSPLVSTRDGFIVGIHSASNFTNTNNYFTSVPKNFMELLTNQEAQQWVSGWRLNADSVLWGGHKVFMVKPEEPFQPVKEATQL [V78A],0.0716,0.057,,0.0628,0.0526,0.0459,0.0729,0.0687,,0.0638,,0.0424,0.0541,0.0573,0.0389,0.0584,0.0471,0.052,0.0629
MGESLFKGPRDYNPISSSICHLTNESDGHTTSLYGIGFGPFIITNKHLFRRNNGTLVVQSLHGVFKVKDTTTLQQHLGDGRDMIIIRMPKDFPPFPQKLKFREPQREERICLVTTNFQTKSMSSMVSDTSCTFPSGDGIFWKHWIQTKDGQCGSPLVSTRDGFIVGIHSASNFTNTNNYFTSVPKNFMELLTNQEAQQWVSGWRLNADSVLWGGHKVFMVKPEEPFQPVKEATQL [V78G],0.049,0.0662,0.0633,,0.0566,,,,0.0455,0.0688,,0.0563,,0.0548,,0.0708,,,
MGESLFKGPRDYNPISSSICHLTNESDGHTTSLYGIGFGPFIITNKHLFRRNNGTLVVQSLHGVFKVKDTTTLQQHLVGGRDMIIIRMPKDFPPFPQKLKFREPQREERICLVTTNFQTKSMSSMVSDTSCTFPSGDGIFWKHWIQTKDGQCGSPLVSTRDGFIVGIHSASNFTNTNNYFTSVPKNFMELLTNQEAQQWVSGWRLNADSVLWGGHKVFMVKPEEPFQPVKEATQL [D79G],0.0577,0.0335,,0.052,0.0631,,0.0665,0.109,0.0506,0.0589,0.0569,0.0768,0.0492,0.0569,0.0653,,0.0531,0.0636,0.0569
MGESLFKGPRDYNPISSSICHLTNESDGHTTSLYGIGFGPFIITNKHLFRRNNGTLVVQSLHGVFKVKDTTTLQQHLVVGRDMIIIRMPKDFPPFPQKLKFREPQREERICLVTTNFQTKSMSSMVSDTSCTFPSGDGIFWKHWIQTKDGQCGSPLVSTRDGFIVGIHSASNFTNTNNYFTSVPKNFMELLTNQEAQQWVSGWRLNADSVLWGGHKVFMVKPEEPFQPVKEATQL [D79V],0.0631,0.0747,0.0594,0.0594,0.0668,0.053,0.0553,,,0.0576,0.0453,,0.0523,0.062,0.0744,,,,0.0806
MGESLFKGPRDYNPISSSICHLTNESDGHTTSLYGIGFGPFIITNKHLFRRNNGTLVVQSLHGVFKVKDTTTLQQHLVDHRDMIIIRMPKDFPPFPQKLKFREPQREERICLVTTNFQTKSMSSMVSDTSCTFPSGDGIFWKHWIQTKDGQCGSPLVSTRDGFIVGIHSASNFTNTNNYFTSVPKNFMELLTNQEAQQWVSGWRLNADSVLWGGHKVFMVKPEEPFQPVKEATQL [G80H],0.0502,0.0772,0.0549,,0.0623,0.0512,0.0584,0.104,0.0595,0.0645,,0.0639,,0.0656,0.0623,0.0802,,0.0503,
MGESLFKGPRDYNPISSSICHLTNESDGHTTSLYGIGFGPFIITNKHLFRRNNGTLVVQSLHGVFKVKDTTTLQQHLVDGGDMIIIRMPKDFPPFPQKLKFREPQREERICLVTTNFQTKSMSSMVSDTSCTFPSGDGIFWKHWIQTKDGQCGSPLVSTRDGFIVGIHSASNFTNTNNYFTSVPKNFMELLTNQEAQQWVSGWRLNADSVLWGGHKVFMVKPEEPFQPVKEATQL [R81G],0.068,0.0653,0.052,0.0656,0.0485,0.0765,,0.0895,0.0589,,,0.0605,,0.0428,,,0.0604,0.0611,0.0635
MGESLFKGPRDYNPISSSICHLTNESDGHTTSLYGIGFGPFIITNKHLFRRNNGTLVVQSLHGVFKVKDTTTLQQHLVDGIDMIIIRMPKDFPPFPQKLKFREPQREERICLVTTNFQTKSMSSMVSDTSCTFPSGDGIFWKHWIQTKDGQCGSPLVSTRDGFIVGIHSASNFTNTNNYFTSVPKNFMELLTNQEAQQWVSGWRLNADSVLWGGHKVFMVKPEEPFQPVKEATQL [R81I],0.0749,0.06,0.0646,0.0473,,0.0603,0.0466,0.103,0.0662,,0.0678,0.0692,0.0562,0.0535,0.0592,0.084,0.0327,0.0653,0.0642
MGESLFKGPRDYNPISSSICHLTNESDGHTTSLYGIGFGPFIITNKHLFRRNNGTLVVQSLHGVFKVKDTTTLQQHLVDGRDMICIRMPKDFPPFPQKLKFREPQREERICLVTTNFQTKSMSSMVSDTSCTFPSGDGIFWKHWIQTKDGQCGSPLVSTRDGFIVGIHSASNFTNTNNYFTSVPKNFMELLTNQEAQQWVSGWRLNADSVLWGGHKVFMVKPEEPFQPVKEATQL [I85C],0.0429,0.0566,0.0554,0.0591,0.0536,0.0635,,0.0922,0.049,0.0488,0.0717,0.0585,,0.0522,0.0595,0.0605,,0.0517,0.0633
MGESLFKGPRDYNPISSSICHLTNESDGHTTSLYGIGFGPFIITNKHLFRRNNGTLVVQSLHGVFKVKDTTTLQQHLVDGRDMIFIRMPKDFPPFPQKLKFREPQREERICLVTTNFQTKSMSSMVSDTSCTFPSGDGIFWKHWIQTKDGQCGSPLVSTRDGFIVGIHSASNFTNTNNYFTSVPKNFMELLTNQEAQQWVSGWRLNADSVLWGGHKVFMVKPEEPFQPVKEATQL [I85F],0.0538,,0.0655,0.067,0.0499,,,0.0888,0.0444,,0.0533,0.0537,0.0517,0.0635,,,,,0.0857
MGESLFKGPRDYNPISSSICHLTNESDGHTTSLYGIGFGPFIITNKHLFRRNNGTLVVQSLHGVFKVKDTTTLQQHLVDGRDMIIFRMPKDFPPFPQKLKFREPQREERICLVTTNFQTKSMSSMVSDTSCTFPSGDGIFWKHWIQTKDGQCGSPLVSTRDGFIVGIHSASNFTNTNNYFTSVPKNFMELLTNQEAQQWVSGWRLNADSVLWGGHKVFMVKPEEPFQPVKEATQL [I86F],0.063,0.0671,0.0737,0.062,0.0465,0.0624,0.0722,0.089,0.0543,0.0586,,0.04,0.0393,0.0793,0.0628,0.0564,,0.0559,
MGESLFKGPRDYNPISSSICHLTNESDGHTTSLYGIGFGPFIITNKHLFRRNNGTLVVQSLHGVFKVKDTTTLQQHLVDGRDMIIRRMPKDFPPFPQKLKFREPQREERICLVTTNFQTKSMSSMVSDTSCTFPSGDGIFWKHWIQTKDGQCGSPLVSTRDGFIVGIHSASNFTNTNNYFTSVPKNFMELLTNQEAQQWVSGWRLNADSVLWGGHKVFMVKPEEPFQPVKEATQL [I86R],0.0321,,0.0441,0.0511,,,,,,0.0325,,0.0449,0.0472,0.0321,0.0387,,0.0327,0.0458,
MGESLFKGPRDYNPISSSICHLTNESDGHTTSLYGIGFGPFIITNKHLFRRNNGTLVVQSLHGVFKVKDTTTLQQHLVDGRDMIIIRMEKDFPPFPQKLKFREPQREERICLVTTNFQTKSMSSMVSDTSCTFPSGDGIFWKHWIQTKDGQCGSPLVSTRDGFIVGIHSASNFTNTNNYFTSVPKNFMELLTNQEAQQWVSGWRLNADSVLWGGHKVFMVKPEEPFQPVKEATQL [P89E],0.0526,0.0555,0.0475,0.0613,0.0674,0.054,,0.0946,,0.0574,0.0746,,0.0621,0.0276,,0.0691,0.0501,,0.0942
MGESLFKGPRDYNPISSSICHLTNESDGHTTSLYGIGFGPFIITNKHLFRRNNGTLVVQSLHGVFKVKDTTTLQQHLVDGRDMIIIRMFKDFPPFPQKLKFREPQREERICLVTTNFQTKSMSSMVSDTSCTFPSGDGIFWKHWIQTKDGQCGSPLVSTRDGFIVGIHSASNFTNTNNYFTSVPKNFMELLTNQEAQQWVSGWRLNADSVLWGGHKVFMVKPEEPFQPVKEATQL [P89F],0.066,0.0544,,,0.0488,,,0.0583,,,0.063,,,0.0569,0.069,0.0524,,,0.0566
MGESLFKGPRDYNPISSSICHLTNESDGHTTSLYGIGFGPFIITNKHLFRRNNGTLVVQSLHGVFKVKDTTTLQQHLVDGRDMIIIRMWKDFPPFPQKLKFREPQREERICLVTTNFQTKSMSSMVSDTSCTFPSGDGIFWKHWIQTKDGQCGSPLVSTRDGFIVGIHSASNFTNTNNYFTSVPKNFMELLTNQEAQQWVSGWRLNADSVLWGGHKVFMVKPEEPFQPVKEATQL [P89W],0.0473,0.0317,0.0358,0.0551,,0.0423,0.0454,,,0.0319,,0.0375,0.0406,0.0488,0.0686,0.0527,,,

# From the supplement of paper PMC12217912
